# Fewer than 10 of roughly 2,200 compounds were called active. The list shows a part of the results. The source made no clear call on entries shown without one.
# Target: GTPase KRas (Homo sapiens) (UniProt P01116)
# Assay: Fragment capture on engineered cysteines, share of protein labelled (AID 2202238)
# Parameters: protein at 5 µM with 500 µM competing thiol for 1.5 h
# Conditions: KRAS G12D cysteine mutants, disulfide tethering, MALDI-TOF labeling; stronger effect = higher value; H27C mutant labeling; fragment at 500 µM
# UniProt P01116, sequence (P01116 whole entry, looked up, the tested form may be a part): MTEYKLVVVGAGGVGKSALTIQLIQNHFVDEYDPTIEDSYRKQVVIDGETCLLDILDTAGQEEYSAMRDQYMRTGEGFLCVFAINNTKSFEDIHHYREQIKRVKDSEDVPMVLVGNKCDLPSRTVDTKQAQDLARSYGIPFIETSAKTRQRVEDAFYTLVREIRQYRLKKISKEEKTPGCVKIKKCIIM
row,Compound,percent labeling [%]
1,O=C(CCS)Nc1cccc(-n2cccc2)c1,36.9
2,O=C(CCS)NCCc1cc(Cl)sc1Cl,42.5
3,O=C(CCS)NC1CCC2(CC1)COCCO2 (stereo unspecified),29.1
4,O=C(NCCS)C1CCCN1C1CCOCC1 (stereo unspecified),29.7
5,O=C(NCCS)C1CCN(C2CCCCC2)C1 (stereo unspecified),46.4
6,O=C(Cn1cc(Br)cn1)NCCS,32.9
7,Cc1nn(-c2cncc(Cl)n2)c(C)c1CC(=O)NCCS,34.3
8,N#Cc1cc(Oc2ccc(CC(=O)NCCS)cc2)ccn1,36
9,Cc1[nH]c2c(Cl)ccc(Cl)c2c1CCNC(=O)CCS,24.7
10,COc1ccc(C)cc1C1(C)NC(=O)N(CC(=O)NCCS)C1=O (stereo unspecified),27.1
11,Cc1nc2nccc(C(=O)NCCS)c2[nH]1,44.8
12,CC(Cc1cncc2ccccc12)C(=O)NCCS (stereo unspecified),37.2
13,O=C(CCS)Nc1ccn(CCN2CCOCC2)n1,34.8
14,O=C(CCS)N1CCc2sccc2C1c1ccc(Cl)cc1 (stereo unspecified),34.8
15,O=C(CCS)Nc1cc2c(cc1Cl)OCO2,34.7
16,Cn1cc(NC(=O)CCS)c(Oc2ccccc2)n1,42.4
17,CC1CCC(C)N1CC(=O)NCCS (stereo unspecified),52.1
18,O=C(NCCS)c1cnc(C2CCOCC2)nc1,41.2
19,O=C(CCS)N(Cc1ccc(-c2ccccc2C(F)(F)F)o1)C1CC1,22.2
20,O=C(NCCS)c1nc(-c2cccs2)n(-c2cccc(F)c2)n1,25.9
21,NC(=O)C1CCC2(CC1)CC(NC(=O)CCS)C2 (stereo unspecified),37.9
22,O=C(CCS)Nc1cc(Br)ccc1C(F)F,38.2
23,O=C(NCCS)C1CCOCC12CCCCC2 (stereo unspecified),29.4
24,O=C(NCCS)c1cccc(-n2ccnc2)n1,65.4

row,Compound,percent labeling [%]
1,CC(=O)Nc1ccc(C)c(NC(=O)CCS)c1,39.1
2,O=C(CNc1nc(C(F)(F)F)nc2ccccc12)NCCS,27.6
3,O=C(NCCS)c1ccoc1C1(O)CCOCC1,46.3
4,O=C(CCC1NC(=O)N(c2ccc(Cl)cc2)C1=O)NCCS (stereo unspecified),32.1
5,Cn1c2ccccc2c2cc(C(=O)NCCS)sc21,29.9
6,CN(C)c1nccc(N2CCN(C(=O)CCS)CC2)n1,45.6
7,O=C(CCS)N(c1cc(F)cc(F)c1)C1CC1,31.6
8,CN(C)c1ncnc2c1cc(C(=O)NCCS)n2C,37.3
9,NC(=O)c1cc2n(n1)CC1(CCN(C(=O)CCS)CC1)OC2,47.6
10,O=C(CCS)Nc1cc(F)c(OC(F)F)cc1F,49.3
11,O=C(NCCS)C1CCC(NC(=O)C2CC2)CC1 (stereo unspecified),35
12,Cc1ccc(OC2CCN(C(=O)CCS)CC2)cc1,49.6
13,O=C(Cn1cnc(-c2ccccc2)cc1=O)NCCS,25.6
14,Cc1ccc(C(=O)NCCS)cc1NC(=O)c1ccccc1,28
15,O=C(CN1CCc2ccccc2C1=O)NCCS,36.2
16,O=C(NCCS)c1ccn2cc(C(F)(F)F)nc2c1,31
17,COc1ccc(-c2ncc(C(=O)NCCS)s2)cc1OC,23.4
18,CCCOc1nc2ccccc2cc1C(=O)NCCS,15.9
19,Cc1cccc(NC(=O)N2CCCC(C(=O)NCCS)C2)c1 (stereo unspecified),27.1
20,O=C(NCCS)c1ccc(Oc2cccc(Cl)c2Cl)cc1,50.3
21,O=C(NCCS)c1cc(OCC(F)(F)F)c2ccccc2n1,30.9
22,Cc1cc(C)c2cc(C(=O)NCCS)sc2n1,35.6
23,O=C(CCc1nc2cc(Br)ccc2s1)NCCS,9.9
24,CN(C)CCOc1ccc(NC(=O)CCS)c(F)c1,60

row,Compound,percent labeling [%]
1,CC(C)(C)OC(=O)NCc1nc(C2CCN(C(=O)CCS)CC2)n[nH]1,21.6
2,N#Cc1c(N)sc2c1CCN(C(=O)CCS)C2,22.2
3,Cc1ncc(NC(=O)CCS)cc1C(N)=O,39.9
4,Cc1nn(Cc2ccc(Cl)cc2)c2sc(C(=O)NCCS)cc12,27.3
5,O=C(Cc1ccc2c(c1)OC(F)(F)O2)NCCS,29.4
6,O=C(CCS)NC1c2ccccc2CC12CCOCC2 (stereo unspecified),39.9
7,O=C(NCCS)c1coc(C2CCCCC2)n1,23.2
8,CC(CC(=O)NCCS)NC(=O)C1CCCC1 (stereo unspecified),28.1
9,Cc1cc(C)c(C(=O)NC2CCN(C(=O)CCS)CC2)o1,46.2
10,COc1ccc(C(=O)NC(C(=O)NCCS)c2ccccc2)cc1 (stereo unspecified),26
11,CCCCN(C)c1ncc(Cl)c(C(=O)NCCS)n1,21.1
12,CCOC(=O)c1n[nH]c2c1CN(C(=O)CCS)CC2,43.9
13,O=C(Cn1nc(C(F)F)cc1C(F)F)NCCS,30.9
14,Cc1cc(=O)c(C(=O)NCCS)nn1-c1ccccc1F,43.8
15,CCOC(=O)c1nn(-c2ccccc2)c2c1CN(C(=O)CCS)CC2,28.7
16,O=C(CCS)NCC12CCC(CO)(CC1)OC2,27.3
17,O=C(CCS)Nc1ccc(OCc2ccccc2)nc1,25.2
18,CC(Cn1cnc2c(cnn2C)c1=O)NC(=O)CCS (stereo unspecified),35.6
19,CCc1nc2nccc(C(=O)NCCS)c2[nH]1,36.9
20,O=C(CCS)NCc1cccc(C(F)F)c1,36.7
21,O=C(NCCS)c1ncn2cc(Cl)ccc12,30
22,Cc1nn(C)c2ncc(NC(=O)CCS)cc12,35.4
23,O=C(CCS)Nc1ccc(-c2ccccc2)cc1F,23.4
